Reference: paper PMC12820563, “FoxP3 forms a head-to-head dimer in vivo and stabilizes its multimerization on adjacent microsatellites”
The other results are listed elsewhere or left out.

What follows are sequences tested against T1, MBP-FoxP1dN (Mus musculus, UniProt P58462 326-579) (assay: PD-seq (MBP pull-down with sequencing); 20 mM Tris-HCl pH 7.5, 100 mM NaCl, 1.5 mM MgCl2, 0.4 uM protein, 0.1 uM dsDNA library, 30 min, room temperature, amylose pull-down; high values mean tight binding). Details: protein: recombinant; tags: His6-MBP; chain copies: 2; dsDNA, one strand shown.
T1 sequence: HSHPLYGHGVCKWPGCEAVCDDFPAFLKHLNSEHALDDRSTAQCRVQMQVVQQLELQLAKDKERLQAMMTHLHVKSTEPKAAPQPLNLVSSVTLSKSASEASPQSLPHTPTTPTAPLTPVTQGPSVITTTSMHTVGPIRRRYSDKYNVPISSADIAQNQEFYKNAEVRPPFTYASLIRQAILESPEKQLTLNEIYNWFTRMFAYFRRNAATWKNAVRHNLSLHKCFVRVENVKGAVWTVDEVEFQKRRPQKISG
Method in brief: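 Binding is given as reads-per-million enrichment, pull-down over input, with replicates pooled. The bait was an N-terminus-lacking mouse FoxP3 or FoxP1 fragment with a His6-MBP tag, expressed in E. coli and used at 0.4 µM with 0.1 µM Klenow-filled degenerate double-stranded DNA library for 30 min at room temperature in Tris pH 7.5 buffer with NaCl and MgCl2. Amylose resin pull-down with three washes was followed by proteinase K release, PCR barcoding and Illumina sequencing.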
For “GATGATTGTTCTCCCAGCTGATGAATTACCGCACTCGAGTAAACAAATTTTCCTAATCTTTCTGTTCAAGCGCCATCTAC”, the binding signal was 0.939 RPM ratio (pull-down/input). In the case of “GATGATTGTTCTCCCAGCTGATGAATTGAATTGATCGAGTAAACAAATTTTCCTAATCTTTCTGTTCAAGCGCCATCTAC”, the binding signal is reported as 0.941 RPM ratio (pull-down/input). “GATGATTGTTCTCCCAGCTGATGAATTGCGATAATCGAGTAAACAAATTTTCCTAATCTTTCTGTTCAAGCGCCATCTAC” was tested, and the binding signal was 1.43 RPM ratio (pull-down/input). “GATGATTGTTCTCCCAGCTGATGAATTATATATGTCGAGTAAACAAATTTTCCTAATCTTTCTGTTCAAGCGCCATCTAC” was tested, and the binding signal was 1.12 RPM ratio (pull-down/input). In the case of “GATGATTGTTCTCCCAGCTGATGAATTTTGTGGATCGAGTAAACAAATTTTCCTAATCTTTCTGTTCAAGCGCCATCTAC”, the binding signal is reported as 1.13 RPM ratio (pull-down/input). For “GATGATTGTTCTCCCAGCTGATGAATTCCGAGACTCGAGTAAACAAATTTTCCTAATCTTTCTGTTCAAGCGCCATCTAC”, the binding signal was 0.759 RPM ratio (pull-down/input). With “GATGATTGTTCTCCCAGCTGATGAATTCCTAGAATCGAGTAAACAAATTTTCCTAATCTTTCTGTTCAAGCGCCATCTAC” the binding signal was 0.911 RPM ratio (pull-down/input). With “GATGATTGTTCTCCCAGCTGATGAATTCGTTGGGTCGAGTAAACAAATTTTCCTAATCTTTCTGTTCAAGCGCCATCTAC” the binding signal was 0.781 RPM ratio (pull-down/input). “GATGATTGTTCTCCCAGCTGATGAATTCCAGCACTCGAGTAAACAAATTTTCCTAATCTTTCTGTTCAAGCGCCATCTAC” was tested, and the binding signal was 0.792 RPM ratio (pull-down/input). For “GATGATTGTTCTCCCAGCTGATGAATTTTAGTCATCGAGTAAACAAATTTTCCTAATCTTTCTGTTCAAGCGCCATCTAC”, the binding signal was 1.07 RPM ratio (pull-down/input). “GATGATTGTTCTCCCAGCTGATGAATTGATACCTTCGAGTAAACAAATTTTCCTAATCTTTCTGTTCAAGCGCCATCTAC” was tested, and the binding signal was 1.09 RPM ratio (pull-down/input). With “GATGATTGTTCTCCCAGCTGATGAATTAGTATAGTCGAGTAAACAAATTTTCCTAATCTTTCTGTTCAAGCGCCATCTAC” the binding signal was 1.03 RPM ratio (pull-down/input). For “GATGATTGTTCTCCCAGCTGATGAATTTTGATAATCGAGTAAACAAATTTTCCTAATCTTTCTGTTCAAGCGCCATCTAC”, the binding signal was 1.33 RPM ratio (pull-down/input). With “GATGATTGTTCTCCCAGCTGATGAATTCCTCCGTTCGAGTAAACAAATTTTCCTAATCTTTCTGTTCAAGCGCCATCTAC” the binding signal was 0.836 RPM ratio (pull-down/input). With “GATGATTGTTCTCCCAGCTGATGAATTAGCCATTTCGAGTAAACAAATTTTCCTAATCTTTCTGTTCAAGCGCCATCTAC” the binding signal was 0.97 RPM ratio (pull-down/input). With “GATGATTGTTCTCCCAGCTGATGAATTGCAGATTTCGAGTAAACAAATTTTCCTAATCTTTCTGTTCAAGCGCCATCTAC” the binding signal was 1.16 RPM ratio (pull-down/input). “GATGATTGTTCTCCCAGCTGATGAATTCTGCCCATCGAGTAAACAAATTTTCCTAATCTTTCTGTTCAAGCGCCATCTAC” was tested, and the binding signal was 0.911 RPM ratio (pull-down/input). In the case of “GATGATTGTTCTCCCAGCTGATGAATTGGGTCCATCGAGTAAACAAATTTTCCTAATCTTTCTGTTCAAGCGCCATCTAC”, the binding signal is reported as 0.888 RPM ratio (pull-down/input). With “GATGATTGTTCTCCCAGCTGATGAATTATTTAATTCGAGTAAACAAATTTTCCTAATCTTTCTGTTCAAGCGCCATCTAC” the binding signal was 1.18 RPM ratio (pull-down/input). In the case of “GATGATTGTTCTCCCAGCTGATGAATTGGTCCATTCGAGTAAACAAATTTTCCTAATCTTTCTGTTCAAGCGCCATCTAC”, the binding signal is reported as 0.983 RPM ratio (pull-down/input). For “GATGATTGTTCTCCCAGCTGATGAATTGAGGCATTCGAGTAAACAAATTTTCCTAATCTTTCTGTTCAAGCGCCATCTAC”, the binding signal was 1.07 RPM ratio (pull-down/input). With “GATGATTGTTCTCCCAGCTGATGAATTCCGAGGTTCGAGTAAACAAATTTTCCTAATCTTTCTGTTCAAGCGCCATCTAC” the binding signal was 0.708 RPM ratio (pull-down/input). “GATGATTGTTCTCCCAGCTGATGAATTGGGCGTCTCGAGTAAACAAATTTTCCTAATCTTTCTGTTCAAGCGCCATCTAC” was tested, and the binding signal was 0.858 RPM ratio (pull-down/input). In the case of “GATGATTGTTCTCCCAGCTGATGAATTACACGGTTCGAGTAAACAAATTTTCCTAATCTTTCTGTTCAAGCGCCATCTAC”, the binding signal is reported as 1.14 RPM ratio (pull-down/input). “GATGATTGTTCTCCCAGCTGATGAATTGACGCAGTCGAGTAAACAAATTTTCCTAATCTTTCTGTTCAAGCGCCATCTAC” was tested, and the binding signal was 1.13 RPM ratio (pull-down/input). In the case of “GATGATTGTTCTCCCAGCTGATGAATTAAATTTATCGAGTAAACAAATTTTCCTAATCTTTCTGTTCAAGCGCCATCTAC”, the binding signal is reported as 1.16 RPM ratio (pull-down/input). With “GATGATTGTTCTCCCAGCTGATGAATTCCACTCCTCGAGTAAACAAATTTTCCTAATCTTTCTGTTCAAGCGCCATCTAC” the binding signal was 0.792 RPM ratio (pull-down/input). For “GATGATTGTTCTCCCAGCTGATGAATTCAGACAGTCGAGTAAACAAATTTTCCTAATCTTTCTGTTCAAGCGCCATCTAC”, the binding signal was 0.802 RPM ratio (pull-down/input). In the case of “GATGATTGTTCTCCCAGCTGATGAATTATCACATTCGAGTAAACAAATTTTCCTAATCTTTCTGTTCAAGCGCCATCTAC”, the binding signal is reported as 1.16 RPM ratio (pull-down/input). For “GATGATTGTTCTCCCAGCTGATGAATTCCCGTTTTCGAGTAAACAAATTTTCCTAATCTTTCTGTTCAAGCGCCATCTAC”, the binding signal was 0.97 RPM ratio (pull-down/input). With “GATGATTGTTCTCCCAGCTGATGAATTGCTCACCTCGAGTAAACAAATTTTCCTAATCTTTCTGTTCAAGCGCCATCTAC” the binding signal was 0.938 RPM ratio (pull-down/input). With “GATGATTGTTCTCCCAGCTGATGAATTACACTGGTCGAGTAAACAAATTTTCCTAATCTTTCTGTTCAAGCGCCATCTAC” the binding signal was 1.03 RPM ratio (pull-down/input). With “GATGATTGTTCTCCCAGCTGATGAATTGGTCCCGTCGAGTAAACAAATTTTCCTAATCTTTCTGTTCAAGCGCCATCTAC” the binding signal was 0.865 RPM ratio (pull-down/input). “GATGATTGTTCTCCCAGCTGATGAATTGTTACCATCGAGTAAACAAATTTTCCTAATCTTTCTGTTCAAGCGCCATCTAC” was tested, and the binding signal was 1.31 RPM ratio (pull-down/input). With “GATGATTGTTCTCCCAGCTGATGAATTAGTGATATCGAGTAAACAAATTTTCCTAATCTTTCTGTTCAAGCGCCATCTAC” the binding signal was 1.1 RPM ratio (pull-down/input). In the case of “GATGATTGTTCTCCCAGCTGATGAATTAAAGCGGTCGAGTAAACAAATTTTCCTAATCTTTCTGTTCAAGCGCCATCTAC”, the binding signal is reported as 0.912 RPM ratio (pull-down/input). In the case of “GATGATTGTTCTCCCAGCTGATGAATTTGAATAGTCGAGTAAACAAATTTTCCTAATCTTTCTGTTCAAGCGCCATCTAC”, the binding signal is reported as 0.867 RPM ratio (pull-down/input). “GATGATTGTTCTCCCAGCTGATGAATTCGGTTTTTCGAGTAAACAAATTTTCCTAATCTTTCTGTTCAAGCGCCATCTAC” was tested, and the binding signal was 0.939 RPM ratio (pull-down/input). In the case of “GATGATTGTTCTCCCAGCTGATGAATTGCCCCAATCGAGTAAACAAATTTTCCTAATCTTTCTGTTCAAGCGCCATCTAC”, the binding signal is reported as 1.01 RPM ratio (pull-down/input). With “GATGATTGTTCTCCCAGCTGATGAATTTCTGAGTTCGAGTAAACAAATTTTCCTAATCTTTCTGTTCAAGCGCCATCTAC” the binding signal was 0.778 RPM ratio (pull-down/input).
